The whole screen tested about 150,000 compounds, of which about 540 (0.36%) showed an effect of 50% or more. The list shows a part of the results.

For this experiment, the system named is Plasmodium falciparum. Kind of experiment: Primary screen in NF54 nanoGlo assay, in single point, at 2uM, 72h; a lower Z score goes with more inhibition. The class given is functional, Erythrocyte. The following applies: timepoint 72 hour.
By % Inhibition is commonly meant the drop in the measured response relative to a control, in per cent. For `Cc1ccc(-c2csc(NC(=O)Cc3n[nH]c(=O)c4ccccc34)n2)cc1`, the “% Inhibition” value is listed as -9% and the Z score is recorded as 1.88.
In the case of `COc1ccc(CC(=O)N[C@H]2COCC[C@@H]2OCc2ccccn2)cc1`, the “% Inhibition” value is on record as -2% and the Z score turned out to be 0.39.
Regarding `CCOc1ccc(CCNC(=O)C2CCCN(S(=O)(=O)N3CC(C)CC(C)C3)C2)cc1OCC` (stereo unspecified), the “% Inhibition” value is on record as 0% and the Z score is given as -0.01.
For `CC(=O)N[C@@H]1CN(C(=O)c2ccc3cc[nH]c3c2)C[C@H]1CO`, the “% Inhibition” value was -11% and the Z score is recorded as 1.94.
On to `O=C1NC2(CCC3(CC2)OCCO3)C(=O)N1CCOc1ccc(F)cc1Cl`, for which the “% Inhibition” value is listed as 2% and the Z score is recorded as -0.27.
For the compound `CN(Cc1ccccc1F)C(=O)C(=O)Nc1ccc2c(c1)CCC(=O)N2`, the “% Inhibition” value was -2% and the Z score is recorded as 0.41.
For `Cc1c(NC(=O)CN(C)Cc2cc(C(C)C)no2)cnn1C`, the “% Inhibition” value is given as 14% and the Z score was -1.86.
On to `CN1N=C(C(=O)NCC2(N3CCOCC3)CCCCC2)CCC1=O`, for which the “% Inhibition” value was determined as 0% and the Z score was -0.01.
The like results for `O=C(Nc1ccc2nscc2c1)N1CCC(F)(F)C1` were, in that order, -13% and 2.56.
The like results for `O=S1(=O)CCC[C@@]2(C(F)(F)F)CN(Cc3nncs3)C[C@H]21` were, in that order, 0% and -0.01.
Regarding `CN(CCO)CCOCCOc1cc(Cl)ccc1Cl`, the “% Inhibition” value worked out at 1% and the Z score is on record as -0.16.
On to `COCCN(CC(=O)N(CCc1c[nH]c2ccccc12)Cc1ccc(OC)c(OC)c1)C(=O)Nc1ccc(C(C)C)cc1`, for which the “% Inhibition” value was -1% and the Z score is given as 0.17.
With `O=C(Nc1ccc(CCO)cc1)c1ccc(N2CCCN(Cc3cccc(F)c3)C2=O)cc1`, the “% Inhibition” value is 0% and the Z score was -0.03.
As for `O=S(=O)(Cc1ccccc1)N1CCC[C@H](c2nnn[nH]2)C1`, the “% Inhibition” value is -9% and the Z score amounted to 1.32.
For `COc1nc2c(cc1CNCc1noc(C3CC3)n1)C(=O)N(C(C)C)C2`, the “% Inhibition” value is given as -28% and the Z score is 2.77.
Consider `COc1ccc(C(=O)N2CCc3nc(-c4cccc(OC)c4)sc3C2)cc1`, for which the “% Inhibition” value was -10% and the Z score worked out at 1.16.
The like results for `CC(C)NC(=O)C1(C(=O)NC(C)C)CCC1` were, in that order, -3% and 0.34.
As for `CCC1CCCCN1CCN1C(=O)[C@@H]2C(C(=O)Nc3ccc(OC)cc3)[C@@H]3C=C[C@]2(O3)C1C(=O)NC1CCCCC1` (stereo partly specified), the “% Inhibition” value is reported as -6% and the Z score came out at 0.91.
In the case of `CCCCN1CC(C(=O)N2CCCCC2CC)CC1=O` (stereo unspecified), the “% Inhibition” value is on record as 2% and the Z score is listed as -0.47.
`Cc1cc(F)c2c(c1)CCCN2CC(=O)NCCc1ccc(F)cc1`: the “% Inhibition” value was -5% and the Z score is recorded as 0.75.
The like results for `N[C@H]1CCCCN(C(=O)OCc2ccccc2Cl)C1` were, in that order, 1% and -0.07.
Regarding `O=C(CC1CCCC1)NCC(=O)N[C@H]1CCC[C@H]1Oc1cc(F)cc(F)c1`, the “% Inhibition” value is given as -4% and the Z score was found to be 0.49.
The like results for `Nc1nccnc1C(=O)N1CCCc2ccccc2C1` were, in that order, -4% and 0.41.
For `Cc1ccc(C)c(CN[C@@H](C)c2cncc(F)c2)c1`, the “% Inhibition” value is reported as 18% and the Z score is -2.28.
On to `CCn1nc(C)c(CN[C@@H](C)c2cnc(N(C)C3CCCCC3)nc2C)c1C`, for which the “% Inhibition” value is given as 0% and the Z score amounted to 0.01.
For `NC(=O)NCC(=O)N1CCCC[C@@H]1CCc1ccccc1`, the “% Inhibition” value came to 8% and the Z score was -1.07.
The like results for `CS(=O)(=O)CCNC(=O)NC1C2CCc3ccccc3C21` (stereo unspecified) were, in that order, 8% and -0.94.
`CN(Cc1ccc2c(c1)OCO2)C(=O)c1cccc(N2CCCC2=O)c1`: the “% Inhibition” value is -3% and the Z score came out at 0.42.
Consider `C[C@H]1CN(C(=O)c2ncccc2O)C[C@]1(O)C1CC1`, for which the “% Inhibition” value was -25% and the Z score was 2.16.
Regarding `CCOC(=O)c1cnn2ccc(NC(=O)c3ccccc3Cl)cc12`, the “% Inhibition” value is recorded as -12% and the Z score turned out to be 1.8.
In the case of `Cc1cc(N2CCC(NC(=O)c3cn(C)nn3)CC2)n[nH]1`, the “% Inhibition” value was -11% and the Z score is 1.4.
For the compound `CCS(=O)(=O)N1CCC[C@H](Cc2nc(C3CC3)no2)C1`, the “% Inhibition” value worked out at 10% and the Z score is given as -1.33.
`Cc1cnccc1-c1ccc(C(=O)N2CCOC[C@@H]2C)s1`: the “% Inhibition” value is listed as -6% and the Z score was 0.87.
On to `Cc1nn(Cc2ccccc2)c2nc(-c3ccsc3)[nH]c12`, for which the “% Inhibition” value is -8% and the Z score is recorded as 1.17.
As to `COC[C@H](C)NC(=O)Nc1ccc(Cl)c(F)c1`, the “% Inhibition” value is listed as -3% and the Z score was 0.25.
For `Cc1ccc(CNC(=O)Cn2nc3c(N4CCOCC4)nc4ccccc4n3c2=O)cc1`, the “% Inhibition” value is 1% and the Z score is -0.18.
As to `CN(C)C(=O)N1CC[C@@]2(O)CCN(Cc3cc4cc(F)ccc4n3C)C[C@H]2C1`, the “% Inhibition” value was -12% and the Z score stood at 1.73.
As for `Cn1c(=O)[nH]c(=O)c2c1nc(N1CCCCCC1)n2C[C@H](O)COc1ccccc1`, the “% Inhibition” value is recorded as -21% and the Z score is recorded as 2.72.
Turning to `CNc1cc(C)nc(-c2cc(NCc3ccncc3)nc3[nH]ccc23)n1`, the “% Inhibition” value was -5% and the Z score was 0.72.
As to `CC(C)Cn1nc2n(c1=O)CCN(C(=O)c1cncn1C)[C@@H]2c1ccccc1`, the “% Inhibition” value turned out to be 2% and the Z score is -0.26.
Regarding `Cc1ccc2c(=O)n(C3(C)CCC3)cnc2c1`, the “% Inhibition” value is recorded as -7% and the Z score came out at 1.35.
With `O=C(CCn1ccnc1-c1cc2n(n1)CCCNC2)NC1CCCCC1`, the “% Inhibition” value is recorded as 5% and the Z score is listed as -0.79.
In the case of `O=C(O)[C@@H]1Cc2c([nH]c3ccccc23)C2(CCCCC2)N1`, the “% Inhibition” value was -13% and the Z score was 1.17.
